{"source": "a collection of fitness landscapes (doi:10.1016/j.celrep.2020.107928)", "parents": {"B1": {"name": "Caulobacter ParB omega fusion; a variant is named by its letters at X, in order, B8GW30 (parent)", "chain": "MESVVVGEPGMSEGRRGLGRGLSALLGEVDAAPAQAPGEQLGGSREAPIEILQRNPDQPRRTFREEDLEDLSNSIREKGVLQPILVRPSPDTAGEYQIVAGERAWRAAQRAGLKTVPIMVRELDDLAVLEIGIIENVQRADLNVLEEALSYKVLMEKFERTQENIAQTIGKSXSHVANXMRLLXLPDEVQSYLVSGELTAXHARAIAAAADPVALAKQIIEGGLSVRETEALARKAPNLSAGKSKGGRPPRVKDTDTQALESDLSSVLGLDVSIDHRGSTGTLTITYATLEQLDDLCNRLTRGI"}}, "note": "In all, about 81,000 sequences were measured (“one-hybrid fitness for binding NBS DNA”: median about -0.1, highest 2% from about 0.36 on). This is one part of the list."}
{"variants_of": "B1", "assay": "one-hybrid fitness for binding NBS DNA (the Noc-binding site; scaled: cognate 1, non-cognate 0); higher = stronger binding", "settings": "with NBS DNA site", "how_it_was_run": "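In E. coli USO, a HIS3 reporter with its site placed 19 bp from the promoter was used to select Caulobacter ParB variants randomised at four specificity codons. Growth lasted 48 hours at 37°C on histidine-free M9 containing 0.1 mM IPTG and 5 mM 3-AT. Fitness was taken as the log change in variant-to-wild-type read ratio from Illumina sequencing of pre- and post-selection plasmids, rescaled between the non-cognate and cognate sites.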"}
{"variant": "AAFS", "one-hybrid fitness for binding NBS DNA": "≤ 0.2"}
{"variant": "QKWV", "one-hybrid fitness for binding NBS DNA": "≤ 0.2"}
{"variant": "SSGT", "one-hybrid fitness for binding NBS DNA": "≤ 0.2"}
{"variant": "QFIR", "one-hybrid fitness for binding NBS DNA": "≤ 0.2"}
{"variant": "LHTS", "one-hybrid fitness for binding NBS DNA": "≤ 0.2"}
{"variant": "SASP", "one-hybrid fitness for binding NBS DNA": "≤ 0.2"}
{"variant": "EFTQ", "one-hybrid fitness for binding NBS DNA": "≤ 0.2"}
{"variant": "KRPA", "one-hybrid fitness for binding NBS DNA": "≤ 0.2"}
{"variant": "YGKS", "one-hybrid fitness for binding NBS DNA": "≤ 0.2"}
{"variant": "QQIC", "one-hybrid fitness for binding NBS DNA": "≤ 0.2"}
{"variant": "LPTS", "one-hybrid fitness for binding NBS DNA": "≤ 0.2"}
{"variant": "QKNV", "one-hybrid fitness for binding NBS DNA": "≤ 0.2"}
{"variant": "GLKT", "one-hybrid fitness for binding NBS DNA": "≤ 0.2"}
{"variant": "NSAF", "one-hybrid fitness for binding NBS DNA": "≤ 0.2"}
{"variant": "SEER", "one-hybrid fitness for binding NBS DNA": "≤ 0.2"}
{"variant": "HPML", "one-hybrid fitness for binding NBS DNA": "≤ 0.2"}
{"variant": "SYIG", "one-hybrid fitness for binding NBS DNA": "≤ 0.2"}
{"variant": "PEIW", "one-hybrid fitness for binding NBS DNA": "≤ 0.2"}
{"variant": "MQSS", "one-hybrid fitness for binding NBS DNA": "≤ 0.2"}
{"variant": "PEYC", "one-hybrid fitness for binding NBS DNA": "≤ 0.2"}
{"variant": "AYPL", "one-hybrid fitness for binding NBS DNA": "≤ 0.2"}
{"variant": "SSMT", "one-hybrid fitness for binding NBS DNA": "≤ 0.2"}
{"variant": "YCGR", "one-hybrid fitness for binding NBS DNA": "≤ 0.2"}
{"variant": "IVDS", "one-hybrid fitness for binding NBS DNA": "≤ 0.2"}
{"variant": "FSVG", "one-hybrid fitness for binding NBS DNA": "≤ 0.2"}
{"variant": "DKLG", "one-hybrid fitness for binding NBS DNA": "≤ 0.2"}
{"variant": "AMWF", "one-hybrid fitness for binding NBS DNA": "≤ 0.2"}
{"variant": "AGQS", "one-hybrid fitness for binding NBS DNA": "≤ 0.2"}
{"variant": "QDPK", "one-hybrid fitness for binding NBS DNA": "≤ 0.2"}
{"variant": "AETA", "one-hybrid fitness for binding NBS DNA": "≤ 0.2"}
{"variant": "CWAM", "one-hybrid fitness for binding NBS DNA": "≤ 0.2"}
{"variant": "HTMY", "one-hybrid fitness for binding NBS DNA": "≤ 0.2"}
{"variant": "HPCR", "one-hybrid fitness for binding NBS DNA": "≤ 0.2"}
{"variant": "NMAN", "one-hybrid fitness for binding NBS DNA": "≤ 0.2"}
{"variant": "KWKV", "one-hybrid fitness for binding NBS DNA": "≤ 0.2"}
{"variant": "QGIL", "one-hybrid fitness for binding NBS DNA": "≤ 0.2"}
{"variant": "AQTC", "one-hybrid fitness for binding NBS DNA": "≤ 0.2"}
{"variant": "HAFP", "one-hybrid fitness for binding NBS DNA": "≤ 0.2"}
{"variant": "SRQD", "one-hybrid fitness for binding NBS DNA": "≤ 0.2"}
{"variant": "KRIL", "one-hybrid fitness for binding NBS DNA": "≤ 0.2"}
{"variant": "YRYY", "one-hybrid fitness for binding NBS DNA": "≤ 0.2"}
{"variant": "DFRT", "one-hybrid fitness for binding NBS DNA": "≤ 0.2"}
{"variant": "LIEL", "one-hybrid fitness for binding NBS DNA": "≤ 0.2"}
{"variant": "NDPR", "one-hybrid fitness for binding NBS DNA": "≤ 0.2"}
{"variant": "VSDT", "one-hybrid fitness for binding NBS DNA": "≤ 0.2"}
{"variant": "ASTC", "one-hybrid fitness for binding NBS DNA": "≤ 0.2"}
{"variant": "YYDN", "one-hybrid fitness for binding NBS DNA": "≤ 0.2"}
{"variant": "TTFY", "one-hybrid fitness for binding NBS DNA": "≤ 0.2"}
{"variant": "HELA", "one-hybrid fitness for binding NBS DNA": "≤ 0.2"}
{"variant": "RDLE", "one-hybrid fitness for binding NBS DNA": "≤ 0.2"}
{"variant": "QKDA", "one-hybrid fitness for binding NBS DNA": "≤ 0.2"}
{"variant": "RSDT", "one-hybrid fitness for binding NBS DNA": "≤ 0.2"}
{"variant": "RWPF", "one-hybrid fitness for binding NBS DNA": "≤ 0.2"}
{"variant": "VATP", "one-hybrid fitness for binding NBS DNA": "≤ 0.2"}
{"variant": "KLTV", "one-hybrid fitness for binding NBS DNA": "≤ 0.2"}
{"variant": "SSES", "one-hybrid fitness for binding NBS DNA": "≤ 0.2"}
{"variant": "DKFY", "one-hybrid fitness for binding NBS DNA": "≤ 0.2"}
{"variant": "PLVT", "one-hybrid fitness for binding NBS DNA": "≤ 0.2"}
{"variant": "CPMS", "one-hybrid fitness for binding NBS DNA": "≤ 0.2"}
{"variant": "ALKY", "one-hybrid fitness for binding NBS DNA": "≤ 0.2"}
{"variant": "QRQE", "one-hybrid fitness for binding NBS DNA": 0.229}
{"variant": "RRHS", "one-hybrid fitness for binding NBS DNA": 0.681}
{"variant": "WNDC", "one-hybrid fitness for binding NBS DNA": "≤ 0.2"}
{"variant": "KLNG", "one-hybrid fitness for binding NBS DNA": "≤ 0.2"}
{"variant": "WAVG", "one-hybrid fitness for binding NBS DNA": "≤ 0.2"}
{"variant": "HIPC", "one-hybrid fitness for binding NBS DNA": "≤ 0.2"}
{"variant": "RFCD", "one-hybrid fitness for binding NBS DNA": "≤ 0.2"}
{"variant": "QRCG", "one-hybrid fitness for binding NBS DNA": 0.343}
{"variant": "NVTD", "one-hybrid fitness for binding NBS DNA": "≤ 0.2"}
{"variant": "RLFL", "one-hybrid fitness for binding NBS DNA": "≤ 0.2"}
{"variant": "IRWV", "one-hybrid fitness for binding NBS DNA": "≤ 0.2"}
{"variant": "LTLH", "one-hybrid fitness for binding NBS DNA": "≤ 0.2"}
{"variant": "GFSA", "one-hybrid fitness for binding NBS DNA": "≤ 0.2"}
{"variant": "MSEC", "one-hybrid fitness for binding NBS DNA": "≤ 0.2"}
{"variant": "REEG", "one-hybrid fitness for binding NBS DNA": "≤ 0.2"}
{"variant": "EYVG", "one-hybrid fitness for binding NBS DNA": "≤ 0.2"}
{"variant": "YQKV", "one-hybrid fitness for binding NBS DNA": "≤ 0.2"}
{"variant": "DQKG", "one-hybrid fitness for binding NBS DNA": "≤ 0.2"}
{"variant": "ALSP", "one-hybrid fitness for binding NBS DNA": "≤ 0.2"}
{"variant": "RPFS", "one-hybrid fitness for binding NBS DNA": "≤ 0.2"}
{"variant": "RRSE", "one-hybrid fitness for binding NBS DNA": "≤ 0.2"}
{"variant": "LSLF", "one-hybrid fitness for binding NBS DNA": "≤ 0.2"}
{"variant": "LTNK", "one-hybrid fitness for binding NBS DNA": "≤ 0.2"}
{"variant": "SIGP", "one-hybrid fitness for binding NBS DNA": "≤ 0.2"}
{"variant": "ARYI", "one-hybrid fitness for binding NBS DNA": "≤ 0.2"}
{"variant": "DDTM", "one-hybrid fitness for binding NBS DNA": "≤ 0.2"}
{"variant": "AWPC", "one-hybrid fitness for binding NBS DNA": "≤ 0.2"}
{"variant": "RVAP", "one-hybrid fitness for binding NBS DNA": "≤ 0.2"}
{"variant": "PKHM", "one-hybrid fitness for binding NBS DNA": "≤ 0.2"}
{"variant": "HRVR", "one-hybrid fitness for binding NBS DNA": "≤ 0.2"}
{"variant": "QTDV", "one-hybrid fitness for binding NBS DNA": "≤ 0.2"}
{"variant": "PSSF", "one-hybrid fitness for binding NBS DNA": "≤ 0.2"}
{"variant": "VMEV", "one-hybrid fitness for binding NBS DNA": "≤ 0.2"}
{"variant": "ATWS", "one-hybrid fitness for binding NBS DNA": "≤ 0.2"}
{"variant": "VRRG", "one-hybrid fitness for binding NBS DNA": "≤ 0.2"}
{"variant": "ARLL", "one-hybrid fitness for binding NBS DNA": "≤ 0.2"}
{"variant": "PVYV", "one-hybrid fitness for binding NBS DNA": "≤ 0.2"}
{"variant": "GLHW", "one-hybrid fitness for binding NBS DNA": "≤ 0.2"}
{"variant": "RKED", "one-hybrid fitness for binding NBS DNA": "≤ 0.2"}
{"variant": "GDES", "one-hybrid fitness for binding NBS DNA": "≤ 0.2"}
{"variant": "SKPG", "one-hybrid fitness for binding NBS DNA": "≤ 0.2"}
{"variant": "TPKM", "one-hybrid fitness for binding NBS DNA": "≤ 0.2"}
{"variant": "MQYG", "one-hybrid fitness for binding NBS DNA": "≤ 0.2"}
{"variant": "QNTK", "one-hybrid fitness for binding NBS DNA": "≤ 0.2"}
{"variant": "HHDC", "one-hybrid fitness for binding NBS DNA": "≤ 0.2"}
{"variant": "YKPM", "one-hybrid fitness for binding NBS DNA": "≤ 0.2"}
{"variant": "ILHT", "one-hybrid fitness for binding NBS DNA": "≤ 0.2"}
{"variant": "IWVR", "one-hybrid fitness for binding NBS DNA": "≤ 0.2"}
{"variant": "MHLR", "one-hybrid fitness for binding NBS DNA": "≤ 0.2"}
{"variant": "PREI", "one-hybrid fitness for binding NBS DNA": "≤ 0.2"}
{"variant": "INRL", "one-hybrid fitness for binding NBS DNA": "≤ 0.2"}
{"variant": "RHAA", "one-hybrid fitness for binding NBS DNA": "≤ 0.2"}
{"variant": "LSFL", "one-hybrid fitness for binding NBS DNA": "≤ 0.2"}
{"variant": "YNNM", "one-hybrid fitness for binding NBS DNA": "≤ 0.2"}
{"variant": "GMTG", "one-hybrid fitness for binding NBS DNA": "≤ 0.2"}
{"variant": "SLWL", "one-hybrid fitness for binding NBS DNA": "≤ 0.2"}
{"variant": "NSPA", "one-hybrid fitness for binding NBS DNA": "≤ 0.2"}
{"variant": "YTQR", "one-hybrid fitness for binding NBS DNA": "≤ 0.2"}
{"variant": "EAGS", "one-hybrid fitness for binding NBS DNA": "≤ 0.2"}
{"variant": "QYLT", "one-hybrid fitness for binding NBS DNA": 0.383}
{"variant": "QDSA", "one-hybrid fitness for binding NBS DNA": "≤ 0.2"}
{"variant": "QMSR", "one-hybrid fitness for binding NBS DNA": 0.557}
{"variant": "PLNI", "one-hybrid fitness for binding NBS DNA": "≤ 0.2"}
{"variant": "VPMC", "one-hybrid fitness for binding NBS DNA": "≤ 0.2"}
{"variant": "MAIY", "one-hybrid fitness for binding NBS DNA": "≤ 0.2"}
{"variant": "PKLT", "one-hybrid fitness for binding NBS DNA": "≤ 0.2"}
{"variant": "CLPK", "one-hybrid fitness for binding NBS DNA": "≤ 0.2"}
{"variant": "PPNK", "one-hybrid fitness for binding NBS DNA": "≤ 0.2"}
{"variant": "TQQG", "one-hybrid fitness for binding NBS DNA": "≤ 0.2"}
{"variant": "ALDA", "one-hybrid fitness for binding NBS DNA": "≤ 0.2"}
{"variant": "MYYR", "one-hybrid fitness for binding NBS DNA": "≤ 0.2"}
{"variant": "HEKN", "one-hybrid fitness for binding NBS DNA": "≤ 0.2"}
{"variant": "VLDT", "one-hybrid fitness for binding NBS DNA": "≤ 0.2"}
{"variant": "HQCK", "one-hybrid fitness for binding NBS DNA": "≤ 0.2"}
{"variant": "NIAG", "one-hybrid fitness for binding NBS DNA": "≤ 0.2"}
{"variant": "GVST", "one-hybrid fitness for binding NBS DNA": "≤ 0.2"}
{"variant": "NSGP", "one-hybrid fitness for binding NBS DNA": "≤ 0.2"}
{"variant": "YVTS", "one-hybrid fitness for binding NBS DNA": "≤ 0.2"}
{"variant": "APGH", "one-hybrid fitness for binding NBS DNA": "≤ 0.2"}
{"variant": "SVSL", "one-hybrid fitness for binding NBS DNA": "≤ 0.2"}
{"variant": "MKTD", "one-hybrid fitness for binding NBS DNA": "≤ 0.2"}
{"variant": "PNSK", "one-hybrid fitness for binding NBS DNA": "≤ 0.2"}
{"variant": "LFRT", "one-hybrid fitness for binding NBS DNA": "≤ 0.2"}
{"variant": "LYKC", "one-hybrid fitness for binding NBS DNA": "≤ 0.2"}
{"variant": "VPYF", "one-hybrid fitness for binding NBS DNA": "≤ 0.2"}
{"variant": "ATEQ", "one-hybrid fitness for binding NBS DNA": "≤ 0.2"}
{"variant": "ASRV", "one-hybrid fitness for binding NBS DNA": "≤ 0.2"}
{"variant": "NPPS", "one-hybrid fitness for binding NBS DNA": "≤ 0.2"}
{"variant": "SNGM", "one-hybrid fitness for binding NBS DNA": "≤ 0.2"}
{"variant": "YELT", "one-hybrid fitness for binding NBS DNA": "≤ 0.2"}
{"variant": "DCSA", "one-hybrid fitness for binding NBS DNA": "≤ 0.2"}
{"variant": "IHWT", "one-hybrid fitness for binding NBS DNA": "≤ 0.2"}
{"variant": "RMMD", "one-hybrid fitness for binding NBS DNA": "≤ 0.2"}
